Laboratory results reported in ChEMBL document CHEMBL4888484, “Replenishing the malaria drug discovery pipeline: Screening and hit evaluation of the MMV Hit Generation Library 1 (HGL1) against asexual blood stage Plasmodium falciparum ,using a nano luciferase reporter read-out” (2022).
Screen size: about 4,800 compounds; about 410 (8.5%) showed an effect of 50% or more. The list shows a part of the results.

system: Plasmodium falciparum; test: Confirmatory screen in NF54 pLDH assay, in single point, at 2uM, 72h; assay type: functional, Erythrocyte; details: timepoint 72 hour

SMILES	% Inhibition [%]
Cc1ccc(S(=O)(=O)Nc2cc3nc4ccccc4nc3n2CCc2ccccc2)cc1	97
CS(=O)(=O)C[C@H](NCc1nc2c(s1)CCC2)c1ccccc1	-7
COc1cc(=O)[nH]cc1Br	-12
Cc1cnc(N[C@@H](CN)C2CCCCC2)nc1	-12
FC(F)Oc1cccc(-c2cc(C(F)(F)F)c3c(-c4ccc5c(c4)OCO5)noc3n2)c1	9
CCO/N=C(\Nc1ccccc1)c1nonc1N	-13
COc1ccc(CC(=O)NCc2nnc3n2CCC3)cc1	9
C=CCCCN(C)C(=O)c1cc(S(N)(=O)=O)cc(Cl)c1F	8
O=C(c1ccnn1C(F)F)N1N=CC[C@]1(O)C(F)(F)F	-3
CCOc1ccc(Nc2c3ccccc3nc3ccccc23)cc1	96
CN1CCC[C@H](C(=O)Nc2nc(C3CC3)cs2)C1	-2
CC(=O)Nc1ccc(C)cc1S(=O)(=O)N1CC=C(c2c(C)n(Cc3ccccc3C)c3ccccc23)CC1	90
CNC(=NCCCOc1cccc(OC)c1)NC	-6
N#CCC(=O)Nc1nc(-c2ccc(Oc3ccccc3)cc2)cs1	-5
CCCn1c(C)nnc1COC(=O)c1ncoc1C	0
COC(=O)COc1nonc1-c1ccccc1	12
Cc1ccc(C(=O)OCC(=O)Nc2ccc3c(c2)OCO3)cn1	1
Cn1cc(CCNC(=O)C2=NN(c3ccccc3)[C@H](C(N)=O)C2)cn1	-9
CS(=O)(=O)[C@H]1CCCN(c2nc3cc(F)ccc3o2)C1	-7
O=C1NC2=Nc3ccccc3NC(c3ccccc3)=C2[C@H](c2cccc3ncccc23)N1	1
CCOc1cc(C)ccc1S(=O)(=O)NC(C)C	0
CCc1ccc(NCc2c(OCc3ccc(Br)cc3)ccc3ccccc23)cc1	-15
Cn1c(CCNC(=O)CCc2cccnc2)nc2cc(Cl)ccc21	10

SMILES	% Inhibition [%]
CC(C)(CC(=O)Nc1ccc2oc(C3CC3)nc2c1)C(=O)O	3
CC(=O)N1CCN(C(=O)CC2CC3CCC2C3)CC1 (centres undefined)	-16
Cc1ccc(S(=O)(=O)N2CCN(C(=O)N3CCOCC3)[C@@H]2C)cc1	-12
Cc1ccc(NCc2ncccn2)cc1OCC1CCCCC1	5
O=C(NC1CCN(Cc2ccccc2)CC1)c1cnn2c(-c3ccc4c(c3)OCO4)ccnc12	11
Cc1nn(C)cc1[C@H](C)NC(=O)c1cc(-c2ccccc2)on1	9
COc1cccc(C(N)=O)c1OCC(=O)NC(C)C	-9
CCOc1cccc(CNC(=O)c2nn[nH]c2Nc2ccc(C)c(C)c2)c1	4
COc1cccc(-c2nc3n(c2C(=O)Nc2cccc(Cl)c2)CCS3(=O)=O)c1	5
O=C1\N=C(c2ccc(Cl)cc2)/N=N\C(c2ccc(Cl)cc2)=N/[C@]1(O)C(F)(F)F	-18
Cc1cc(OCc2ccc(Br)cc2)c(C)cc1CN1CCOCC1	14
Cc1ccccc1N1CCN(C(=O)CCC2CCN(c3cc(NC4CC4)ncn3)CC2)CC1	-10
Cc1nc(NCc2coc3ccccc23)n(C)n1	-5
CCN(CC)c1ccc(C(=O)Nc2ccc3nc(N4CCCC4)cc(C)c3c2)cc1	93
Cc1nccn1-c1ncc(NC(=O)Nc2ccc3c(c2)OCO3)cn1	14
O=C(C[C@H]1CCOC1)Nc1cc2ccc(Br)cn2n1	11
O=C(N[C@@H](N1CCCCCC1)C(Cl)(Cl)Cl)c1cccc(Cl)c1	-20
COCCNc1ccc(S(N)(=O)=O)cc1N	5
O=C(NCc1ccc(N2CCCC2=O)cc1)c1cnc2n1CCCC2	-11
CCc1ccc(S(=O)(=O)N2CCn3c(nnc3[C@H]3CCN(C(C)C)C3)C2)cc1	9
COc1ccc(CN2CC(C)OC3(CCOC3)C2)cc1Cl (centres undefined)	6
COc1ccccc1Cc1nnc2n1CCCC2	8
Cc1cc(C(=O)NCC[C@H](C)n2nc(C)cc2C)c2c(-c3ccc(F)cc3)noc2n1	-25

SMILES	% Inhibition [%]
Cn1cc(Cl)c(C(=O)Nc2cccc(S(=O)(=O)N3CCOCC3)c2)n1	13
COCCOCC(=O)Nc1cc(Cl)c(C)cc1Br	9
CCc1cc(C(=O)N2CCCCC2)c2c(C)nn(-c3ccc(OC)cc3)c2n1	10
CN(C)S(=O)(=O)c1cc(C(=O)N2CCCO2)co1	7
Cc1nn(C)cc1NC(=O)N[C@H]1CCCC[C@@H]1O	-6
COc1ccc2c(c1)CCN2S(=O)(=O)c1ccc2c(c1)OCCO2	-4
CCc1c2c(=O)n(-c3nc4ccccc4s3)[nH]c2cc(=O)n1CCCN1CCOCC1	29
CN(Cc1ccc(F)cc1Cl)[C@H]1CCc2nnc(C3CCOCC3)n2CC1	-4
Cc1ccc(C(=O)C[n+]2cc(-c3ccc(Br)cc3)n(C)c2N)cc1	-16
Cc1onc(C(=O)NCc2cnn(C)c2C)c1COc1cccc(C(F)(F)F)c1	-4
N/C(CC(=O)Nc1cccc(Cl)c1)=N/O	10
Nc1nc(-c2ccccc2)c2cc3c(nn12)C[C@H](c1ccc(F)cc1)CC3=O	-6
Cn1nc(N)c2cc(C3OCCCO3)ccc21	-9
CC(C)(C)Nc1nc2nonc2nc1NC1CCCCC1	6
CCNc1nc(C)cc(Nc2ccc(NS(=O)(=O)c3c(C)noc3C)cc2)n1	100
CC(C)c1cc(=O)[nH]c(-n2nc(C3CC3)cc2NC(=O)Cc2ccc(Cl)cc2)n1	67
Cc1c(N[C@@H](C)C2CCOCC2)cccc1C(N)=O	10
Cc1c(NC(=O)CC(C)(C)CC(=O)N2CCN(c3ccccc3F)CC2)c(=O)n(-c2ccccc2)n1C	9
Cc1ncsc1C=Cc1ncc(C(=O)O)c(C(C)C)n1	-14
Cc1nn(C2CCCC2)c2nc(-c3cc(CN(C)C)cs3)[nH]c12	-5
Cn1c(-c2ccccc2)cn2cc(-c3ccc(Cl)cc3)nc12	13
CNCCCNC(=O)c1ccc(Br)cc1C	10
N[C@@H](C(=O)Nc1nnc(Cc2ccsc2)s1)c1ccccc1	13
